Experimental data as given in PMC12136788.
The list shows a part of the results.

T1: UNK ZnF1-3 (human, UniProt Q9C0B0 31-174)
T1 sequence: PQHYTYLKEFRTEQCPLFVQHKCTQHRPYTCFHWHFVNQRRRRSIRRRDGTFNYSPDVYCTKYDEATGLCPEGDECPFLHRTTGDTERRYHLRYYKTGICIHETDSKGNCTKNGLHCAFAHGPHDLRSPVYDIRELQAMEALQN

B1: chr15:83807826:83807827:-_ENSG00000166503_ENST00000299633|hu_hu|FALSE|FALSE (ssRNA)
RNA: GGGAGUUCUACAGUCCGACGAUCGGGCAACUUCAUGCAACCAAAUAACAUGAAAUUAAAUCAGUAACUUUUAAAAAAGGCUAAAAUGUCUUUUCCCCCCGAAACACAACAGAGAGGAAUAUGAAUAAUGUACAUACAAACUGGCAACAGAGGAUUGAGCAUCA
B2: chr2:202488911:202488912:-_ENSG00000155755_ENST00000286196|hu_mus|hu_hu_hu_mus_False|78_88 (ssRNA)
RNA: GGGAGUUCUACAGUCCGACGAUCAUUGAAACAUUUUUCAUAAUCUCAGAGAUGUUUCAGUAUUAUAGUAACAAAAGCUCAAUUGUAAAUACAUGUAUCUUAUAAAAAUACACUUAAAAACACGAGUGGGGAGCGCAGGCGCCACAACAGAGGAUUGAGCAUCA
B3: chr12:39756943:39756944:-_ENSG00000139116_ENST00000544797|hu_mus|hu_hu_hu_mus_False|78_108 (ssRNA)
RNA: GGGAGUUCUACAGUCCGACGAUCGGUUUGGCUAUUACCCCCAAGGGAAUCCUGCAAUAGUCUUGUUAGCUUAGAGUCUCUGUAAGGGACAUGGGUGGCUCUCUUGCUCUUGUCCCCCAAGGCGCUGAUUACAUUCCCAAGAGCCAACAGAGGAUUGAGCAUCA
B4: chrX:12728449:12728450:+_ENSMUSG00000031010_ENSMUST00000089302|perfect_dup|FALSE|FALSE (ssRNA)
RNA: GGGAGUUCUACAGUCCGACGAUCAUGCCCUAAGGCUUUUAAAGCUUCAUCUAAACUAUCCACCAAAGAAUUAAAGAACUCUAAAGCAUCAUGUUGUUCACGAAGAUUGACAGGCUCACCCCAAAGCCUGAACUGUUUCCAAAACAACAGAGGAUUGAGCAUCA
B5: chr20:57485947:57485948:+_ENSG00000087460_ENST00000306090|hu_hu|FALSE|FALSE (ssRNA)
RNA: GGGAGUUCUACAGUCCGACGAUCGGGGGUUUCGCAAAAUCACUCGGGGGAAGGGAAAGGUUGCUUUGUUAAUCAUGCCCUAUGGUGGGUGAUUAACUGCUUGUACAAUUACGUUUCACUUUUAAUUAAUUGUGCUUAAGGCUUCAACAGAGGAUUGAGCAUCA
B6: chr11:43534790:43534791:+_ENSMUSG00000044950_ENSMUST00000129229|mus_hu|FALSE|FALSE (ssRNA)
RNA: GGGAGUUCUACAGUCCGACGAUCCCAUCUGGUUUUCUCAUGUUUUCUCCAUUCAUUAAAAAAGAAAAAUUAAGGUCUUUUAUAUAUUUACCAAAGACAAGAAAAAAACUACAGUCUCUAUUAGUAAGAAUUCAUGCUCCAUGCCAACAGAGGAUUGAGCAUCA
B7: chr6:33282685:33282686:-_ENSG00000236104_ENST00000431845|hu_hu|FALSE|FALSE (ssRNA)
RNA: GGGAGUUCUACAGUCCGACGAUCAUGGUGAAACUGUGGUUCCCCUUCCAGAAUAUAUACAAGUCCACAGAGAUAAAGGAAGACAGUAAGUGUGGUGGGAGAUCACCCGGGGGCCACAGCGCCCUUGCAUCGUGCUCCUUAUUCCAACAGAGGAUUGAGCAUCA
B8: chr2:78710632:78710633:+_ENSMUSG00000027011_ENSMUST00000028398|mus_mus|FALSE|FALSE (ssRNA)
RNA: GGGAGUUCUACAGUCCGACGAUCUCGGGCUCUGGAGCGGCAGGGUCUCGCUGAUCUGCAUCUGAACUGCCACUGCUGGUGCUAGGGCUCUCAUCAUCCGACCUUUGCCUGUCACUGGACAUCUUGGUGAACUUAUCUCUGGGACAACAGAGGAUUGAGCAUCA
B9: chr20:60963365:60963366:+_ENSG00000171858_ENST00000343986|hu_hu|FALSE|FALSE (ssRNA)
RNA: GGGAGUUCUACAGUCCGACGAUCCGCACGGUAAAGUCCACGAUGUCCCGAAGUGAUGAGCAAAGCCCAGGGAAACACUCACCAUCCUACGAAUGGCCCCGCAGAUAGCAUAAGUUUUAAACUGGCCAUUAAACCUGCCUGUGACAACAGAGGAUUGAGCAUCA
B10: chr7:34935884:34935885:-_ENSMUSG00000052997_ENSMUST00000102746|mus_mus|FALSE|FALSE (ssRNA)
RNA: GGGAGUUCUACAGUCCGACGAUCUAAAAUCUUUAAUCCUUCCAACACUAUCAAGCCGGCGAUCACUGCAUUAGUAGUAGCUAUAGCAGGAAUGAUAUUCCCUGCCAUUGAUUUUAUAUCAAACCUGCUCUUCAUAUUCAUGCUCAACAGAGGAUUGAGCAUCA
B11: chr11:4749296:4749297:-_ENSMUSG00000009073_ENSMUST00000109910|mus_mus|motif|central (ssRNA)
RNA: GGGAGUUCUACAGUCCGACGAUCGCAGCCCCGAGCUUGGAGCUUCGGGCUGGGGACGCCAGGGACGCCUUUGGACAGAAAUCCGGGACGGCUGCGGCGCCGACGCCGGGCCUCUCAGCGACCCCCGAGGGUCGCGGGGCCGCGCAACAGAGGAUUGAGCAUCA
B12: chr18:38611996:38611997:+_ENSMUSG00000024425_ENSMUST00000025293|mus_hu|FALSE|FALSE (ssRNA)
RNA: GGGAGUUCUACAGUCCGACGAUCGAGACCAAAUCCUGAAAUGGCCCCAUACCUUCCUGCAGCUGAAGUGGUCAGGCAAAAAGACAGGAAAAACCCAAUCCAGUUAAAGAGGAAUGCCAUGAAAAAAGUUAACAUGAAAAUCCCCAACAGAGGAUUGAGCAUCA
B13: chr2:216981417:216981418:+_ENSG00000079246_ENST00000392132|hu_hu|hu_hu_hu_mus_True|98_98 (ssRNA)
RNA: GGGAGUUCUACAGUCCGACGAUCCUGAUACUGGUCCCCACCAGAAAGGGCAUUAUCAGUGCCAUCUGUGCCAUAGAGGACUAACGCAAUCUCAUCUUUGCUCUCCGAAAAUACCUGUCGUUGGACAAACAUAGUCAUCACUUUCAACAGAGGAUUGAGCAUCA
B14: 31522678_31522798_1204_CDS_ENSMUSG00000022234_ENSMUST00000022842|mouse|control|control (ssRNA)
RNA: GGGAGUUCUACAGUCCGACGAUCGAUAACCAGCAUUUUGUCUUUUGUAGUGCCAAAGGAGAUCUCCUGCACCACACCAGCAAAGCCCAGCUUCUCAGAGGUGAGCUCUGAGAACCGUGGGACAAUCCGUCCUCCUGUUGCAAUCAACAGAGGAUUGAGCAUCA

Biological target: T1, UNK ZnF1-3
Assay: nsRBNS (natural sequence RNA bind-n-seq); RBNS binding buffer (assumed for nsRBNS): 25 mM Tris pH 7.5, 150 mM KCl, 3 mM MgCl2, 0.01% Triton X-100, 500 ug/ml BSA, 20 U/ml SUPERase-In, 4 C; UNK is unkempt and MSI1 is Musashi-1; names of the RNAs are library labels; protein concentration not given here; high values mean tight binding

Row | Binder | binding signal
1 | B1 | 2.35 enrichment R
2 | B2 | 0.674 enrichment R
3 | B3 | 0.751 enrichment R
4 | B4 | 1.31 enrichment R
5 | B5 | 1.01 enrichment R
6 | B6 | 2.05 enrichment R
7 | B7 | 1.3 enrichment R
8 | B8 | 0.829 enrichment R
9 | B9 | 1.23 enrichment R
10 | B10 | 0.512 enrichment R
11 | B11 | 0.34 enrichment R
12 | B12 | 1.85 enrichment R
13 | B13 | 0.992 enrichment R
14 | B14 | 0.839 enrichment R
